Laboratory results published in PMC12153800.
These are yes or no findings as the source states them, for the method shown. In cells and extracts the contact can be indirect. Some entries that bind do so weakly or less than the wild type. Tags and fused reporters may be left off the sequences shown.

T1: HiBiT-FZD9-mCherry (mouse) (UniProt Q9R216)
T1 sequence: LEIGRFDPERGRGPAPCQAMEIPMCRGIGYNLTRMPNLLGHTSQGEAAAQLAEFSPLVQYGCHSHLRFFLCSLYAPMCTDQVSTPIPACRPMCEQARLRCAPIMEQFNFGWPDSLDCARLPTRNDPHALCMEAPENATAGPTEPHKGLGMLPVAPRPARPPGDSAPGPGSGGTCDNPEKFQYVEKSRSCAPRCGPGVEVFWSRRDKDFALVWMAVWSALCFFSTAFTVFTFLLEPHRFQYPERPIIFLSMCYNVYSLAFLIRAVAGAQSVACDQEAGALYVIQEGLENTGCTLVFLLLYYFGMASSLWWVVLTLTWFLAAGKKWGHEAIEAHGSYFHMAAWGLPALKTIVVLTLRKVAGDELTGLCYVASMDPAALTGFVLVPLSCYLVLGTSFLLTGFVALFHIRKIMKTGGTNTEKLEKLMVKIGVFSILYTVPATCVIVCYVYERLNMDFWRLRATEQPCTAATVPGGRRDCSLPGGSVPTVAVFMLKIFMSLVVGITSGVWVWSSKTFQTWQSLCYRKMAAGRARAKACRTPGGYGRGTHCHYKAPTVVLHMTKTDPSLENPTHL

T2: HiBiT-FZD4-mCherry (mouse) (UniProt Q61088)
T2 sequence: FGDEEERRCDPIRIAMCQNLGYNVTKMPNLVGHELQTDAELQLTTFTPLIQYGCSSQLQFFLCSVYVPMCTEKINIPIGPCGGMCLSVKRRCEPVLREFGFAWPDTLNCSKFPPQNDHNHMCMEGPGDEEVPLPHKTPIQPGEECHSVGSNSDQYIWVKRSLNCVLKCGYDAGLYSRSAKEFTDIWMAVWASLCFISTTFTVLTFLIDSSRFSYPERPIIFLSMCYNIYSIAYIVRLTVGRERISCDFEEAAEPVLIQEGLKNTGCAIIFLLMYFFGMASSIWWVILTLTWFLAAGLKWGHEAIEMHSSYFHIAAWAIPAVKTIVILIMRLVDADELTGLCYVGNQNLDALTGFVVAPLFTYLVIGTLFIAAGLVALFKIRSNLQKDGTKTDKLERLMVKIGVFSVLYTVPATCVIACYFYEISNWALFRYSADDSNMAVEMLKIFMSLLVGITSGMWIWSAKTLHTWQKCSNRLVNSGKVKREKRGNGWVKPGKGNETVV

B1: eGFP-Wnt5a (ligand, UniProt P41221 62-380)
chain: IIGAQPLCSQLAGLSQGQKKLCHLYQDHMQYIGEGAKTGIKECQYQFRHRRWNCSTVDNTSVFGRVMQIGSRETAFTYAVSAAGVVNAMSRACREGELSTCGCSRAARPKDLPRDWLWGGCGDNIDYGYRFAKEFVDARERERIHAKGSYESARILMNLHNNEAGRRTVYNLADVACKCHGVSGSCSLKTCWLQLADFRKVGDALKEKYDSAAAMRLNSRGKLVQVNSRFNSPTTQDLVYIDPSPDYCVRNESTGSLGTQGRLCNKTSEGMDGCELMCCGRGYDQFKTVQTERCHCKFHWCCYVKCKKCTEIVDQFVCK
B2: eGFP-Wnt16 (ligand, UniProt Q9UBV4 30-365)
chain: NWMWLGIASFGVPEKLGCANLPLNSRQKELCKRKPYLLPSIREGARLGIQECGSQFRHERWNCMITAAATTAPMGASPLFGYELSSGTKETAFIYAVMAAGLVHSVTRSCSAGNMTECSCDTTLQNGGSASEGWHWGGCSDDVQYGMWFSRKFLDFPIGNTTGKENKVLLAMNLHNNEAGRQAVAKLMSVDCRCHGVSGSCAVKTCWKTMSSFEKIGHLLKDKYENSIQISDKTKRKMRRREKDQRKIPIHKDDLLYVNKSPNYCVEDKKLGIPGTQGRECNRTSEGADGCNLLCCGRGYNTHVVRHVERCECKFIWCCYVRCRRCESMTDVHTCK

How the values were obtained:
[1] = target: T1, HiBiT-FZD9-mCherry (mouse); experiment: FRET or BRET; NanoBiT/BRET association kinetics on live U-2 OS cells stably expressing low levels of HiBiT-FZD-mCherry; LgBiT and Vivazine added; four concentrations of eGFP-Wnt conditioned medium (Wnt3a up to 15.2 nM, Wnt5a up to 17.3 nM, Wnt16 up to 24 nM); 37 °C, DMEM with 5% FBS and 10 mM HEPES, read every 80 s for 300 min; kinetic Kd
[2] = target: T2, HiBiT-FZD4-mCherry (mouse); experiment: as above

Binder | binding [1] | binding [2]
B1 | no binding (tested: 17.3 nM) | binds
B2 | no binding (tested: 24 nM) | binds
